In all, about 280,000 compounds went through this assay and about 100 (0.036%) were called active. Inconclusive results, whose numbers are uncertain, are shown with a selection of clear calls. The call rests on the fitted dose curve; in most records, active means well fitted inhibition curve with a large enough effect in the signal ratio, with a control signal flat (not every such curve was filed as active); inconclusive means small, poorly fitted or top-dose-only effect, or effect the other way, or a change in a side signal; inactive means no such curve, though single readings can be large or run the other way; the % refers to the signal ratio. Potencies of inconclusive entries are doubtful fits and often do not repeat. A note “side channel” means that the fit belongs to a control or component signal, not to the main read-out. Starred links: 1 amine or outer side, 2 acyl side, 3 side chain; linkers in the order of their positions; H or OH if unused. Positions of bridges follow the written chain, without caps; N, C: chain ends. Non-standard residues stand in square brackets, D forms with d. Residues, ends and D or L forms follow the SMILES beside them. ξ: configuration not given here. hSer(Ph(2-I,4-NO2,6-CO)) = O=C([C@H](CCOc1c(I)cc([N+](=O)[O-])cc1C(=O)[*:3])N[*:1])[*:2]; ξD = NC(CC(=O)O)C(=O)O
These compounds were tested against Muscleblind-like protein 1 (Homo sapiens) (UniProt Q9NR56) (assay: qHTS Assay for Inhibitors of MBNL1-poly(CUG) RNA binding). Details: TR-FRET MBNL1-His/biotin-(CUG)12 binding, 665/545 ratio; activity change, negative = inhibition: at 57.5 µM (top of the series).
Chain of UniProt Q9NR56 (Q9NR56 whole entry, looked up): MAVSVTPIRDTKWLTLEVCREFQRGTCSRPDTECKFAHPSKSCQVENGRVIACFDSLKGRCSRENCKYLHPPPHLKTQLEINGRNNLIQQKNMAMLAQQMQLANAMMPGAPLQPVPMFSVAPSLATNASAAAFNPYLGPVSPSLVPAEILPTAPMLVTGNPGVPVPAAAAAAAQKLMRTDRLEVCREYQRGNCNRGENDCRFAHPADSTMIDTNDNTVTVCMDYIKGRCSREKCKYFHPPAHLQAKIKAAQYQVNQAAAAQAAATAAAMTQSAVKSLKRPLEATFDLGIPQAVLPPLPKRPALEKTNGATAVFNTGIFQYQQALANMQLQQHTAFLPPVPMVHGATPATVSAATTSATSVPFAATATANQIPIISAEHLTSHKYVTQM
Method in brief: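 TR-FRET between His-tagged MBNL1 and biotin-(CUG)12 RNA, detected with Tb anti-His antibody (0.055 ng/ul) and streptavidin-XL665 (5 nM), 60 min at room temperature. Compounds titrated 92 nM to 58 uM; 665/545 nm ratio normalized to buffer and complex controls.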
On the % scale 0 is the no-effect control and ±100 the full control effect; potency means the concentration at half of the fitted maximal effect; tags describe the fitted curve by direction and shape or compound fluorescence and quenching.

| Structure (SMILES) | activity change, negative = inhibition | Potency |
| --- | --- | --- |
| CC(C)CC(=O)NNC(=O)c1ccc(Cl)cc1 | inactive: -5.09% | – |
| Oc1cccc(C=NCc2ccccc2)c1O | – | inconclusive: 15.8 µM [quencher, side channel, partial curve] |
| Nc1cc(-c2ccccc2)ccc1O | – | inactive |
| Cc1nnc2ccc(-c3cccc(NC(=O)c4ccc(Br)o4)c3)nn12 | – | inconclusive: 20 µM [quencher, side channel, partial curve] |
| Cc1ccc(-c2nn(-c3ccccc3)c3[nH]c(=O)c(CNCc4ccccc4)cc23)cc1 | – | inconclusive: 10 µM [quencher, side channel, partial curve, poor fit] |
| CC(C)N1CCc2c(sc(NC(=O)c3nc4ccccc4s3)c2C(N)=O)C1 | – | inconclusive: 39.8 µM [quencher, single point] |
| CCC1=NN2C(=N)/C(=C\c3ccc(OCc4cc(=O)n5nc(CC)sc5n4)c(OC)c3)C(=O)N=C2S1 | inactive: -0.105% | – |
| COc1ccc2cc3cc(C(=O)NCCc4ccc(OC)c(OC)c4)oc3nc2c1 | – | inconclusive: 1.58 µM [quencher, side channel, full curve] |
| N#CC1=C(N)N(c2ccc(F)cc2)C2=C(C1c1ccc(O)cc1)S(=O)(=O)CC2 (stereo not drawn) | – | inconclusive: 15.8 µM [quencher, side channel, partial curve] |
| O=C(Nc1ccccn1)c1cccc(S(=O)(=O)N2CCCCC2)c1 | inactive: -6.23% | – |
| COCC(=O)Oc1c(Sc2ccccc2[N+](=O)[O-])c(C)nn1C(C)(C)C | – | inconclusive: 28.2 µM [quencher, side channel, partial curve] |
| O=C1C(C2=C(O)c3ccccc3C2=O)=Nc2ccccc21 | – | inconclusive: 15.8 µM [quencher, side channel, partial curve] |
| C#CCOCCOCCOCCNc1nc(N2CCN(C(=O)[C@H]([C@@H](C)CC)n3cc([C@@H](N)CO)nn3)CC2)nc(N2CCN(C(=O)[C@H](Cc3ccc(O)cc3)n3cc([C@@H](N)C(C)CC)nn3)CC2)n1 (stereo partly drawn) | – | inconclusive: 100 µM [inhibitor, single point] |
| O=S(=O)(c1ccc2nc(COc3ccc(Cl)cc3Cl)[nH]c2c1)N1CCOCC1 | inactive: -10.5% | – |
| Clc1nc(Nc2ccc(N3CCOCC3)cc2)c2ccccc2n1 | – | inconclusive: 28.2 µM [quencher, side channel, single point] |
| COc1ccccc1C(=O)NNC(=S)NC(=O)c1cccs1 | inactive: -4.45% | – |
| CCC(=C/c1sc2ccc3ccccc3c2[n+]1C)/C=C1\Sc2ccc3ccccc3c2N1C | – | inconclusive: 20 µM [quencher, side channel, single point] |
| CC(=O)Oc1ccc(Cl)cc1/C=C/c1cc(OC(C)=O)c2ccccc2n1 | – | inconclusive: 35.5 µM [quencher, side channel, partial curve] |
| CCOC(=O)c1nnc2c(Br)c(-c3ccccc3)nn2c1C | – | inconclusive: 39.8 µM [quencher, side channel, partial curve, poor fit] |
| CC(C)Oc1ccc(/C=N/NC(=O)C(CSCc2ccccc2)NC(=O)c2ccc([N+](=O)[O-])cc2)cc1 (stereo not drawn) | – | inconclusive: 20 µM [quencher, side channel, partial curve] |

| Structure (SMILES) | activity change, negative = inhibition | Potency |
| --- | --- | --- |
| O=C(CN1C(=O)/C(=C/c2ccc(F)cc2)SC1=S)NC1C=CS(=O)(=O)C1 (stereo not drawn) | – | inconclusive: 3.16 µM [quencher, side channel, full curve, poor fit] |
| O=C(CSc1ccccc1)Nc1cc(Cl)ccc1Oc1ccccc1 | – | inconclusive: 1.12 µM [fluorescent, side channel, partial curve] |
| C[C@@H]1NC(=O)c2cc([N+](=O)[O-])cc(I)c2OCC[C@@H](C(=O)NC(CC(=O)O)C(N)=O)NC(=O)[C@H](CC(N)=O)NC1=O (stereo partly drawn) (AN[hSer(Ph(2-I,4-NO2,6-CO))][ξD]-NH2; lactam N-3) | – | inconclusive: 25.1 µM [quencher, side channel, partial curve] |
| CCOC(=O)C1=C(O)/C(=C/c2ccc(OCC(=O)O)c(OCC)c2)SC1=Nc1ccccc1 | – | inconclusive: 20 µM [quencher, side channel, partial curve] |
| Cc1ccc(CNc2ccc(S(=O)(=O)N3CCOCC3)cc2[N+](=O)[O-])cc1 | – | inconclusive: 0.398 µM [quencher, side channel, full curve, poor fit] |
| CC1CCN(CCCn2c(=S)[nH]c3c(sc4ccc([N+](=O)[O-])cc43)c2=O)CC1 | – | inconclusive: 3.55 µM [quencher, side channel, full curve] |
| O=c1cc2c(nn1Cc1c(Cl)cccc1Cl)-c1ccccc1CC2 | – | inconclusive: 7.08 µM [quencher, side channel, single point] |
| O=C(NCCC1=CCCCC1)C1CCN(S(=O)(=O)c2cccc3nsnc23)CC1 | – | inconclusive: 6.31 µM [quencher, side channel, full curve] |
| Cc1ccc(-c2csc(N/N=C/c3ccco3)n2)cc1 | inactive: -9.35% | – |
| Cc1ccc(NC(=S)N2CCN(c3ncccn3)CC2)cc1C | – | inconclusive: 2.24 µM [fluorescent, side channel, partial curve] |
| COCCCn1c(SCC(=O)NC2CCCC2)nnc1-c1ccncc1 | inactive: -1.64% | – |
| Cc1nn(S(=O)(=O)c2cccc([N+](=O)[O-])c2)c(C)c1S(=O)(=O)N1CCOCC1 | – | inconclusive: 12.6 µM [quencher, side channel, partial curve] |
| O=C(NCCCN1CCOCC1)c1ccc(N2CCCC2)c([N+](=O)[O-])c1 | – | inconclusive: 25.1 µM [quencher, single point] |
| Brc1c(CSc2nc3ccccc3s2)nc2ncccn12 | – | inconclusive: 31.6 µM [quencher, side channel, partial curve] |
| CCOc1cc(CNCc2ccccc2)ccc1OCc1ccc(Cl)cc1 | inactive: 3.71% | – |
| CNC(=O)c1c(NC(=O)c2cccc(C)c2)sc2c1CCC2 | inactive: 5.34% | – |
| O=C(NCCOC(=O)c1c(F)cccc1Cl)c1c(F)cccc1Cl | inactive: 11.2% | – |
| CCCCNc1cc(C(=O)O)cc(S(N)(=O)=O)c1Oc1ccccc1 | – | inconclusive: 100 µM [inhibitor, single point] |
| O=c1nc(-c2ccccc2Cl)c2cc(F)ccc2[nH]1 | – | inconclusive: 25.1 µM [quencher, side channel, single point] |
| C=CCc1ccccc1OCC(O)CN1CCN(CCN2C(=O)c3cccc4cccc(c34)C2=O)CC1 (stereo not drawn) | – | inconclusive: 3.55 µM [quencher, side channel, partial curve] |

| Structure (SMILES) | activity change, negative = inhibition | Potency |
| --- | --- | --- |
| COC(=O)C1=C(C)N(Cc2ccccc2)C(=NCC2CC2)N[C@H]1c1ccccc1 | – | inactive |
| FC(F)Oc1ccc(-c2csc(Cc3nnc4n3CCCCC4)n2)cc1 | – | inconclusive: 39.8 µM [quencher, single point] |
| Cc1ccc(C2C3=C(Nc4[nH]n(-c5ccccc5)c(=O)c42)c2ccccc2C3=O)cc1 (stereo not drawn) | – | inconclusive: 20 µM [quencher, side channel, single point] |
| CSc1ccc(-c2cccc([N+](=O)[O-])c2)nn1 | – | inconclusive: 15.8 µM [quencher, side channel, partial curve] |
| Cc1ccc2nc(SCc3ccc([N+](=O)[O-])cc3)[nH]c2c1 | – | inconclusive: 15.8 µM [quencher, side channel, partial curve] |
| COCc1cc(C)nc2oc(C(=O)c3ccccc3)c(N)c12 | – | inconclusive: 8.91 µM [quencher, side channel, partial curve] |
| Cc1cc(C(=O)OCC(=O)Nc2cccc(S(=O)(=O)N3CCOCC3)c2)c(C)o1 | inactive: 1.28% | – |
| COC(=O)C1=COC(C)C2CN3CCc4c([nH]c5cc(OC)c(OC)cc45)C3CC12 (stereo not drawn) | inactive: 9.63% | – |
| O=c1c(O[C@@H]2O[C@H](CO)[C@@H](O)[C@H](O)[C@H]2O)c(-c2ccc(O)c(O)c2)oc2cc(O)cc(O)c12 | – | inconclusive: 10 µM [quencher, side channel, partial curve] |
| O=C(Cc1ccc([N+](=O)[O-])cc1)NNC(=O)c1ccc2c(c1)OCO2 | – | inconclusive: 15.8 µM [quencher, side channel, partial curve] |
| COc1ccc(C(=O)NC(=S)Nc2nnn(C)n2)cc1 | – | inconclusive: 35.5 µM [fluorescent, side channel, partial curve] |
| O=C(CC1SC2=NCCN2C1=O)Nc1ccccc1 (stereo not drawn) | inactive: -7.45% | – |
| COc1ccc(-c2ccc(=O)n(CC(=O)NCc3ccco3)n2)cc1 | – | inconclusive: 12.6 µM [quencher, side channel, partial curve] |
| Cc1ccc(Nc2cccccc2=O)cc1 | – | inconclusive: 17.8 µM [quencher, side channel, partial curve] |
| COc1ccc(/C=C/C(=O)Nc2ccc3c(c2)OCCO3)cc1OC | – | inconclusive: 28.2 µM [quencher, side channel, partial curve] |
| Cc1c(C(=O)Nc2cccc([N+](=O)[O-])c2)cnn1-c1ccccc1 | – | inconclusive: 25.1 µM [quencher, side channel, partial curve] |
| CN=C(NC1CCCCC1)c1ccc([N+](=O)[O-])cc1 | – | inconclusive: 15.8 µM [quencher, side channel, partial curve] |
| CC(C)CNc1cc(N2CCCC2)ccc1[N+](=O)[O-] | – | inconclusive: 5.62 µM [quencher, side channel, partial curve] |
